Measurements: paper doi:10.1101/822957 (bioRxiv, 2019)

Target: NTSR1 (1-418, wild type)-TEV site-tTA (human, UniProt P30989)
Assay: Tango assay

Chain of UniProt P30989 (P30989 whole entry): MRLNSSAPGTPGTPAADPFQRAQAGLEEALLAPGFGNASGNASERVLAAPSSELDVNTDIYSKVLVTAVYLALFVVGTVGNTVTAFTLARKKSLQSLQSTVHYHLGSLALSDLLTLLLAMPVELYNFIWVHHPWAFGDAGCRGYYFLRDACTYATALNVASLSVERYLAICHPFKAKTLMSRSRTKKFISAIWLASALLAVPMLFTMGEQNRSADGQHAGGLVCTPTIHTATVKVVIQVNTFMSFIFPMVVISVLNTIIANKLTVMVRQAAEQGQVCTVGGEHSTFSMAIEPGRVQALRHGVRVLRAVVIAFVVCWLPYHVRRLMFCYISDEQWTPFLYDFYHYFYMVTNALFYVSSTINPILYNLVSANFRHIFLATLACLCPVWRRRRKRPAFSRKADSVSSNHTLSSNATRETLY

fold increase of binding activity with ML314 (against no agonist): ~3 fold
fold increase of binding activity with NTS (against no agonist): ~2 fold
fold increase of binding activity with NTS and ML314 (against no agonist): ~4 fold
B1: Arr2 ([…], wild type)-TEV protease (natural protein)
chain: not shown
